According to PubChem BioAssay AID686978 (National Center for Advancing Translational Sciences (NCATS), 2013):
“And” between values parts separate entries of the source, which are not always exact repeats. Identical values can stand only once. Hit rate of the full screen: of about 420,000 compounds, about 64,000 (15%) were called active. This list was built around the results that the source calls inconclusive (neither active nor inactive); the mix of calls is not that of the screen. Calls follow the shape of the dose curve; as a rule, active = well fitted inhibition curve with a large enough effect; inconclusive = small, poorly fitted or top-dose-only effect; inactive = flat fitted curve, though single readings scatter. Potencies of inconclusive entries are left out as doubtful fits. The source holds several records for some structures; these can differ, active in one and inactive in another.

Test: qHTS for Inhibitors of human tyrosyl-DNA phosphodiesterase 1 (TDP1): qHTS in cells in absence of CPT; also: nearly all actives have a fitted effect of over 55% in size
Conditions: DT40 Tdp1-/- hTDP1 cells, no CPT, ATP luminescence, 48 h; activity change, negative = growth inhibition: at 46.2 µM (top of the series) unless noted
How it was run: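 A cellular qHTS used chicken DT40 cells lacking endogenous Tdp1 but carrying stably transfected human TDP1. Compounds were applied without camptothecin, and cell growth kinetics were judged by ATP-dependent luminescence after ≥48 hr.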
% is scaled to controls: 0 for no effect and ±100 for the full control effect; potency is read from the fitted curve at half-maximal effect; tags tell the direction and shape of the fitted curve.

Structure (SMILES) | Potency | activity change, negative = growth inhibition
CC(C)c1cccc(O)c(=O)c1 | active: 16.4 µM and active: 8.2 µM and active: 22.4 µM | 
Cn1cc[n+](C)c1P(=S)(c1ccccc1)c1ccccc1 | active: 20.6 µM | 
CC(C)N(Cc1nccn1C)C(=O)CCc1nnc(CCCc2ccccc2)o1 | inconclusive [inhibitor, full curve, poor fit] | 
CCC(=O)N1CC(=O)Nc2ccc(C)cc2C1c1ccc(F)cc1 (stereo unspecified) | active: 9.2 µM | 
CCN1CCN(C(=O)COc2ccc(S(=O)(=O)N(C)Cc3ccccc3)cc2)CC1 | inactive | 
CCOc1ccc(CC2(CCc3ccncc3)C(=O)NC(=O)NC2=O)cc1 |  | inconclusive: -32.6% [inhibitor]
Cc1cc(/C=C2\C(=O)NC(=O)N(c3ccc(Cl)cc3)C2=O)c(C)n1-c1cccc(C(=O)O)c1 | inactive | 
CCCC(c1nnnn1Cc1cccs1)N1CCN(c2nc3ccccc3s2)CC1 (stereo unspecified) | inconclusive [inhibitor, single point] | 
CC1(C)OC(c2ccccc2)=C/C(=C/C=C2C(=O)NC(=O)NC2=O)O1 | inconclusive [inhibitor, partial curve, poor fit] | 
NN=C1C(Cl)=C(Cl)C(Cl)=C1Cl | inconclusive [inhibitor, single point] | 
O=[N+]([O-])c1ccc(CN2CC=C(c3ccccc3)CC2)cc1 | inconclusive [inhibitor, single point] | 
Clc1ccccc1C1=NCc2nncn2-c2sc(Br)cc21 | inactive | 
ClCCN(CCCl)c1ccc(C=Cc2ccncn2)cc1 | active: 9.2 µM | 
NCc1cccnc1 | inactive | 
COc1ccc(OC)c(C[C@H](C)N)c1 | inactive | 
O=C(Cc1ccccc1)Oc1cccc(-n2cnnn2)c1 | inactive | 
COC(=O)C1=C(c2cccc(OCc3ccccc3)c2)C[C@@H]2CC[C@H]1N2C(=O)NCCN1CCOCC1 | inconclusive [inhibitor, single point] | 
Cc1sc2c(c1C)C(c1ccc(C(C)(C)C)cc1)=NCC(=O)N2CC(=O)Nc1nccs1 | inconclusive [inhibitor, single point] | 
Cn1c(O)c(C=NC2CC(C)(C)NC(C)(C)C2)c(=O)n(C)c1=O | inactive | 
COc1ccc(CC(N)c2csc(NC(=O)Nc3ccccc3Oc3ccccc3)n2)cc1 (stereo unspecified) | active: 16.4 µM | 
Cc1cc(/C=C2/C(=O)NC(=O)N(Cc3ccco3)C2=O)c(C)n1-c1ccccc1O | inactive | 
CCN(CC)CCCN=Cc1c(O)n(-c2cccc(C)c2C)c(=O)[nH]c1=O | inactive | 
Cc1cc(C)cc(C(=O)OC2C[C@H]3CC[C@@H](C2)N3C)c1 (stereo partly specified) | active: 21.1 µM and active: 18.8 µM | 
O=C1c2ccccc2-n2nnc(-c3ccccc3)c2C2c3cc(Br)ccc3CCN12 (stereo unspecified) | inconclusive [inhibitor, single point] | 
O=c1[nH]c(=S)n(-c2ccccc2F)c(O)c1C=NCCN1CCNCC1 | inactive | 
O=C(COc1ccc(Cl)cc1)N(c1ccc(Cl)cc1)C1CN2CCC1CC2 (stereo unspecified) | active: 16.4 µM | 

Structure (SMILES) | Potency | activity change, negative = growth inhibition
CCn1cc(C(=O)NCCc2ccc(OC)c(OC)c2)c(=O)c2cc(S(=O)(=O)N(C)C3CCCCC3)ccc21 | inconclusive [inhibitor, single point] | 
COc1c(C)cc(C(=O)C2CCCN(Cc3cccc(C)n3)C2)cc1C (stereo unspecified) | active: 20.6 µM | 
C#CC1(O)CCC2C3CCC4=CC(=O)CCC4=C3C=CC21C (stereo unspecified) | active: 14.6 µM | 
Cc1ccc(-n2c(O)c(/C=N/NC(=O)c3ccncc3)c(=O)[nH]c2=O)cc1C |  | inconclusive: -8.49% [inhibitor]
O=C1NCN(c2ccccc2)C12CCN(C(c1cc3ccccc3o1)c1nnnn1C1CCCCC1)CC2 (stereo unspecified) | inconclusive [inhibitor, single point] | 
Cc1ncoc1C(=O)NCC1=C(c2ccc(S(C)(=O)=O)cc2)C[C@@H]2CC[C@H]1N2CCOc1ccccc1 |  | inconclusive: -6.7% [inhibitor]
CC(CC(C#N)(c1ccccc1)c1ccccc1)N1CCOCC1 (stereo unspecified) | inconclusive [inhibitor, single point] | 
Cc1cc(OCC(=O)NCc2ccc(S(N)(=O)=O)cc2)c2c3c(c(=O)oc2c1)CCC3 | inactive | 
CN(C)CC(C(=O)Cc1ccccc1)c1ccccc1 (stereo unspecified) | active: 0.651 µM | 
O=Cc1cn(Cc2c(F)cccc2Cl)c2ccccc12 | inconclusive [inhibitor, single point] | 
CCc1cccc(NC(=O)c2ccc(NC(=O)N3CCSc4ncccc43)cc2)c1 | active: 16.4 µM | 
CCc1ccc(NC2=NCCCS2)cc1 |  | inconclusive: -31.5% [inhibitor]
Cc1ccccc1Cn1cccc(C(=O)Nc2cc(Cl)ccc2C#N)c1=O | inactive | 
S=C(NCCc1ccccc1)N1Cc2cc(N3CCCCC3)ccc2-n2nncc2C1 | inconclusive [inhibitor, single point] | 
CC(=O)c1ccc(N2CCN(c3ccc4cc(S(=O)(=O)N5CCCCC5)ccc4n3)CC2)cc1 | active: 3.66 µM | 
Cc1ccc(N=C(/N=C(\N)N[N+](=O)[O-])Nc2ccc(C)cc2)cc1 | inconclusive [inhibitor, partial curve, poor fit] | 
O=C1C2CCCN2C(c2cccs2)N1c1ccccn1 (stereo unspecified) | inactive | 
O=C(Nc1ccccc1)c1cc([N+](=O)[O-])ccc1N1CCNCC1 | inactive | 
COc1ccc(C(=O)c2nc3ccccc3n2C(C)C)cc1OC | inconclusive [inhibitor, partial curve, poor fit] | 
N/C(=N\[N+](=O)[O-])N/N=C/c1ccc(O)cc1 | inactive | 
CCn1c(=O)cc(OCC(=O)N2CCC3(CC2)OCCO3)c2ccccc21 |  | inconclusive: -30.2% [inhibitor]
Cc1cc(OCc2ccc([N+](=O)[O-])cc2)c2c3c(c(=O)oc2c1)CCCC3 | inconclusive [inhibitor, partial curve] | 
C=CCSSCC=C | inactive | 
CCC(CC)C1C(C#N)=C(N)Oc2c1c(=O)oc1ccccc21 (stereo unspecified) | inconclusive [inhibitor, single point] | 
Cc1ccccc1O | inactive | 
O=C1CC(=O)N(c2ccccc2)C(=O)N1c1ccccc1 | inactive | 

Structure (SMILES) | Potency | activity change, negative = growth inhibition
Cc1ccccc1-c1ccc2c(c1)CNCc1cnnn1-2 | inconclusive [inhibitor, single point] | 
COC(=O)C1=C(c2ccccc2OCc2ccccc2)C[C@@H]2CC[C@H]1N2C(=O)NCc1ccc(C(F)(F)F)cc1 | inconclusive [inhibitor, single point] | 
Cc1ccc(C2=NCC(=O)Nc3ccc(Br)cc32)cc1 | inconclusive [inhibitor, partial curve] | 
CN1CC(C(=O)c2ccc(Cl)cc2)C(c2ccc(N(C)C)cc2)C1 (stereo unspecified) | inconclusive [inhibitor, single point] | 
O=C(CNC(=O)c1cccs1)OCC(=O)c1ccc([N+](=O)[O-])cc1 | inconclusive [inhibitor, single point] | 
Cc1ccc(/C=C2/C(=O)NC(=O)N(CC3CCCO3)C2=O)s1 (stereo unspecified) | inconclusive [inhibitor, single point] | 
Clc1cccc(N2Cc3ccccc3-n3nncc3C2)c1 | inconclusive [inhibitor, single point] | 
COc1ccc(NC(=O)c2cc([N+](=O)[O-])ccc2N2CCNCC2)cc1 | inconclusive [inhibitor, single point] | 
CCOC(=O)c1c(C=O)c2ccccc2n1Cc1ccccc1F | inconclusive [inhibitor, single point] | 
C/C(=N\N=C(N)N)c1ccccc1 | active: 18.4 µM | 
O=c1cccc2n1CC1CNC[C@H]2C1 | inactive | 
CCN(CC)P(c1n(C)cc[n+]1C)N(CC)CC | active: 23.1 µM | 
CCOC(=O)CC(SP(=S)(OC)OC)C(=O)OCC (stereo unspecified) | inactive and active: 4.33 µM | 
COc1ccc(CN2Cc3cc(-c4ccccc4)ccc3-n3nncc3C2)cc1 | inconclusive [inhibitor, single point] | 
O[C@@H]1[C@H](O)[C@H]2[C@@H](O)CCN2C[C@@H]1O | inactive | 
CCC1(NS(=O)(=O)c2ccc(N)cc2)C(=O)N(C)C(=O)N(C)C1=O | inconclusive [inhibitor, single point] | 
Cc1ncc(CN2CCCC(C(=O)c3cccc(OC(C)C)c3)C2)s1 (stereo unspecified) | inconclusive [inhibitor, partial curve] | 
O=C(/C=C/c1c[nH]c2ccccc12)c1c(O)n(CCc2ccccc2)c(=O)[nH]c1=O | inactive | 
CCCCn1nnnc1C(c1cccs1)N1CCC2(CC1)C(=O)NCN2c1ccccc1 (stereo unspecified) | inconclusive [inhibitor, single point] | 
CC1=CC(=Cc2sc3ccccc3[n+]2C)C=C(C)O1 | active: 0.0164 µM | 
CN1CC(C(=O)c2cccs2)C(c2ccc(Cl)cc2)C1 (stereo unspecified) |  | inconclusive: -32.3% [inhibitor]
COc1ccc(NC(=O)c2cn(CCC#N)nc2-c2cccc([N+](=O)[O-])c2)cc1 | inactive | 
C[C@H](NC(=O)N1C[C@H]2C[C@@H](C1)c1cccc(=O)n1C2)C(=O)Nc1ccc(F)c(F)c1 | inconclusive [inhibitor, partial curve] | 
CCCN(CCC)CCc1c[nH]c2ccccc12 | inconclusive [inhibitor, single point] | 
